In the BET-seq Pho4 binding data (Le et al. 2018):
This is one part of the list. These are noisy estimates, calculated here from bound and input reads.

Target: T1, Pho4 (S. cerevisiae) (UniProt P07270)
T1 sequence: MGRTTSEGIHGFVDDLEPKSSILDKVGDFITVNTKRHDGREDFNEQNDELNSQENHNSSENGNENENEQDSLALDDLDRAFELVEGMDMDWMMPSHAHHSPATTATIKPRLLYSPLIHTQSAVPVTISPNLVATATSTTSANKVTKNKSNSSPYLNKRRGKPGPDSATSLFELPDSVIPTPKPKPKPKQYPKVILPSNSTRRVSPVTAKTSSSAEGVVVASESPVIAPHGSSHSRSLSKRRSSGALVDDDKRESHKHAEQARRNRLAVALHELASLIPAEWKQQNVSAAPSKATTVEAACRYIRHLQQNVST
Experiment: relative binding free energy (BET-seq); higher = weaker binding
Conditions: reference: library average

| Sequence | relative binding free energy |
| --- | --- |
| GGTCACACGTGTAGAG | 0.3 kcal/mol |
| TGTCTCACGTGAGTTG | 0.27 kcal/mol |
| GTATACACGTGCTGGA | 0.11 kcal/mol |
| GTGGTCACGTGCGCTG | -0.09 kcal/mol |
| AGTGACACGTGATGTT | 0.07 kcal/mol |
| ATGGGCACGTGATTTT | -0.03 kcal/mol |
| GTGAACACGTGGTAGA | -0.06 kcal/mol |
| GATGTCACGTGTGGTA | 0.17 kcal/mol |
| AAAGGCACGTGTTTTT | -0.06 kcal/mol |
| TAAGTCACGTGCTTTT | 0.01 kcal/mol |
| TTGGACACGTGTGTAG | 0.12 kcal/mol |
| ATTAGCACGTGTGTAT | -0.14 kcal/mol |
| GGAATCACGTGCAGGT | 0.13 kcal/mol |
| TCATGCACGTGGCTTT | -0.09 kcal/mol |
| GGAGACACGTGAGTTG | 0.26 kcal/mol |
| TGTGGCACGTGTTGGT | 0.04 kcal/mol |
| TGGTTCACGTGGACAT | 0.35 kcal/mol |
| GGGTGCACGTGTATAT | 0.09 kcal/mol |
| GGTGGCACGTGACAAG | 0 kcal/mol |
| TATTTCACGTGCTTGG | 0.21 kcal/mol |
| TGGTACACGTGGGTGC | -0.06 kcal/mol |
| TTCGACACGTGTGTGG | 0.15 kcal/mol |
| TGTGCCACGTGTTGCT | -0.07 kcal/mol |

| Sequence | relative binding free energy |
| --- | --- |
| TTCGGCACGTGGTTAA | -0.1 kcal/mol |
| TAGGACACGTGATTTA | 0.11 kcal/mol |
| TTCTACACGTGTTTTA | 0.2 kcal/mol |
| TTTTCCACGTGAAATG | 0.42 kcal/mol |
| GGTAACACGTGAGTCG | 0.3 kcal/mol |
| AGGACCACGTGGGGGC | -0.25 kcal/mol |
| TTGCACACGTGGGGGG | -0.11 kcal/mol |
| CAAGGCACGTGGTGAG | -0.2 kcal/mol |
| GGATTCACGTGGGAGT | 0.28 kcal/mol |
| AGTGGCACGTGTGCTT | -0.08 kcal/mol |
| CTAAACACGTGTGGTG | -0.09 kcal/mol |
| CTCGTCACGTGGTATG | 0.03 kcal/mol |
| TAGTTCACGTGCAGTT | 0.48 kcal/mol |
| GCGTACACGTGTGGGT | 0.14 kcal/mol |
| AGAGACACGTGTATGG | 0.04 kcal/mol |
| AGGGGCACGTGGTGTA | -0.22 kcal/mol |
| TGGGTCACGTGGGATT | 0.03 kcal/mol |
| GCGGGCACGTGTAGGG | -0.06 kcal/mol |
| AGGGTCACGTGTGGGG | 0.11 kcal/mol |
| TTGGACACGTGTGACA | 0.12 kcal/mol |
| TCGGGCACGTGATGAT | 0.13 kcal/mol |
| TGGCACACGTGAGTTT | 0.12 kcal/mol |
| TTAGTCACGTGCTTAA | 0.11 kcal/mol |

| Sequence | relative binding free energy |
| --- | --- |
| TATGCCACGTGAGTTT | 0.18 kcal/mol |
| GGTATCACGTGGCCTT | 0.17 kcal/mol |
| CAGTTCACGTGAGGGG | 0.31 kcal/mol |
| GTTAGCACGTGAGGTC | 0.09 kcal/mol |
| GTGCTCACGTGGGTAT | 0.16 kcal/mol |
| AGGGTCACGTGCTGGA | -0.02 kcal/mol |
| CTATTCACGTGTTGTT | 0.18 kcal/mol |
| TTAAGCACGTGGGGGG | -0.26 kcal/mol |
| TGTATCACGTGGGTGA | 0.01 kcal/mol |
| TTGTGCACGTGGGTAG | -0.14 kcal/mol |
| AAGAGCACGTGGGTCG | -0.24 kcal/mol |
| GCGGGCACGTGGATAG | -0.11 kcal/mol |
| TGATACACGTGCTGGT | -0.06 kcal/mol |
| GTGCTCACGTGTCGGT | 0.27 kcal/mol |
| TGGGTCACGTGGCAAG | 0.04 kcal/mol |
| CTAGGCACGTGGGAGG | -0.27 kcal/mol |
| AAAGGCACGTGGGAGT | -0.21 kcal/mol |
| GGTCACACGTGGTAGT | 0.08 kcal/mol |
| TTTGCCACGTGGGTCG | -0.31 kcal/mol |
| CTAAACACGTGGTTTG | 0 kcal/mol |
| GAGTTCACGTGGGTTC | 0.26 kcal/mol |
| CTCGGCACGTGGAAGG | 0.15 kcal/mol |
| CGACGCACGTGGGGTG | -0.23 kcal/mol |

| Sequence | relative binding free energy |
| --- | --- |
| GTCTGCACGTGATATT | 0.31 kcal/mol |
| GGGGTCACGTGGTTCG | 0.24 kcal/mol |
| GTGATCACGTGCGGTT | 0.12 kcal/mol |
| GAGTTCACGTGGTCTG | 0.31 kcal/mol |
| CGAAACACGTGTTGGG | 0.12 kcal/mol |
| TGGTGCACGTGGTACA | -0.25 kcal/mol |
| CTTGTCACGTGGAAGG | 0.14 kcal/mol |
| GTGGACACGTGGTACG | -0.03 kcal/mol |
| CGTAGCACGTGATTTT | 0.18 kcal/mol |
| TTTAGCACGTGGGCTT | -0.18 kcal/mol |
| TTAGTCACGTGGAGTC | 0.11 kcal/mol |
| ATGAGCACGTGGGGCG | -0.17 kcal/mol |
| TATAACACGTGGGTCG | -0.15 kcal/mol |
| AGGTACACGTGGTTGA | -0.01 kcal/mol |
| GCGAGCACGTGAGAGG | 0.23 kcal/mol |
| AGGTGCACGTGGAAGG | -0.06 kcal/mol |
| AATTCCACGTGTTTTT | 0.16 kcal/mol |
| TTGAGCACGTGGGAGG | -0.27 kcal/mol |
| TAGGTCACGTGCATAG | 0.13 kcal/mol |
| TTGGGCACGTGAGGTC | 0.08 kcal/mol |
| GGTAGCACGTGCTCGG | -0.16 kcal/mol |
| TTGATCACGTGTAGCG | 0.21 kcal/mol |
| GGTCGCACGTGATGGC | 0.12 kcal/mol |

| Sequence | relative binding free energy |
| --- | --- |
| AATTGCACGTGCTTGA | 0.04 kcal/mol |
| ACATGCACGTGTTTTT | 0.06 kcal/mol |
| GTTTTCACGTGTAGCA | 0.28 kcal/mol |
| ATAGTCACGTGGTGAG | 0.13 kcal/mol |
| GAGGTCACGTGTATTT | 0.22 kcal/mol |
| TTTATCACGTGGAAGA | 0.25 kcal/mol |
| TAGGGCACGTGGTGTG | -0.08 kcal/mol |
| ATCTTCACGTGGGAGT | 0.08 kcal/mol |
| GAAATCACGTGATGTG | 0.22 kcal/mol |
| AGGAGCACGTGAGGAG | 0.2 kcal/mol |
| TAGTACACGTGTGTAG | 0.02 kcal/mol |
| AAGTGCACGTGGGTGG | -0.21 kcal/mol |
| TAACTCACGTGAGGTG | 0.28 kcal/mol |
| AGCGACACGTGGGAGG | -0.06 kcal/mol |
| ATATGCACGTGTTCGT | -0.1 kcal/mol |
| GATCACACGTGTGGTG | 0.18 kcal/mol |
| ATCGGCACGTGTGGAA | 0.06 kcal/mol |
| TATGTCACGTGTTGTA | 0.12 kcal/mol |
| GCCGTCACGTGGTAGG | 0.04 kcal/mol |
| GGTATCACGTGAATTG | 0.26 kcal/mol |
| GGATGCACGTGAGGCG | 0.24 kcal/mol |
| TGGTACACGTGTATCG | 0.08 kcal/mol |
| TCTGGCACGTGGAGTT | 0.08 kcal/mol |
